Measurements as given in article PMC10668032.
The list shows a part of the results. At the low end of the ranking the order means little.

What follows are sequences tested against SIX1-Q177R homeodomain (UniProt Q15475) (assay: universal protein binding microarray). Conditions: Universal all-10-mer PBM (8x60K, AMADID 030236), 300 nM GST-tagged protein, Alexa Fluor 488 anti-GST; buffer, salt, pH and temperature not stated; high values mean tight binding; most listed sequences are background and not binding sites; double strand, one strand shown.

| Sequence | binding signal [E-score] |
| --- | --- |
| GGTGGCTA | -0.0164 |
| GTTTTCAA | -0.0894 |
| ATTTGCAA | -0.291 |
| CACATGTA | -0.0412 |
| AAGAGACC | 0.000615 |
| GCGTTGGA | 0.107 |
| AGCCTTTA | -0.167 |
| CTATGGGA | -0.083 |
| ATGGGGAG | -0.0333 |
| GATTCGTA | 0.0678 |
| CCCTGTCA | 0.0397 |
| TGGATTAA | -0.0619 |
| AGAGTTTC | -0.151 |
| CACGTAAC | 0.099 |
| GGTAAAAC | 0.025 |
| ACGTCCCG | 0.0356 |
| AACCCGGG | 0.244 |
| CCCGTAGG | 0.178 |
| ACGCGCGA | 0.0288 |
| ACGAGGCG | 0.11 |
| CGGCGTCC | 0.0693 |
| GAGGTGAA | -0.162 |
| ACCATGCG | -0.0152 |
| GAAGCTAA | -0.201 |
| GCGTAGGA | 0.0884 |

| Sequence | binding signal [E-score] |
| --- | --- |
| CATGATAC | 0.287 |
| AGAGGCTG | -0.0524 |
| CAAACTCG | -0.158 |
| CCTTTTCG | -0.183 |
| GGATGTCA | 0.0654 |
| ATTTATCA | -0.16 |
| CAGGGTAG | 0.0718 |
| GCCCACCC | 0.229 |
| ACGATGAT | -0.0343 |
| AGATTCCG | -0.0149 |
| AGGCAAGA | -0.198 |
| ATCAAGAT | -0.123 |
| GACATGCC | -0.0196 |
| CAATCGTC | 0.104 |
| ACGATGAA | -0.229 |
| AAGTTTAC | -0.154 |
| ACGAATTC | -0.116 |
| CTGGGACC | -0.152 |
| CGATGACG | -0.147 |
| ACTCCCTC | 0.156 |
| CCGTTCAG | -0.2 |
| CCGCCAAA | -0.13 |
| AACTGTAA | -0.126 |
| AAAGTTAC | 0.00056 |
| GGGCAGGA | 0.135 |

| Sequence | binding signal [E-score] |
| --- | --- |
| CCCCGGGA | 0.253 |
| ATGAAAAA | -0.136 |
| AAACAGCT | -0.147 |
| AAAGGCAT | -0.214 |
| GGACCACA | -0.0544 |
| GGCACAAC | -0.0395 |
| AGACAAAT | -0.185 |
| CAAGCAGC | -0.194 |
| AAGCCTGG | -0.236 |
| ACTTGGGG | -0.00376 |
| ACATTCCC | -0.181 |
| ATGTCACA | -0.00363 |
| GCTCTCCC | -0.147 |
| ACGTTCAT | -0.0319 |
| AATTTAGA | -0.129 |
| ACTTATGA | -0.134 |
| CTCCAATC | -0.0901 |
| ACGTATAG | -0.0737 |
| ATTAATCG | -0.152 |
| AGTGATGC | -0.157 |
| ACTTGTCT | -0.168 |
| GCGGGTAC | 0.201 |
| GGCACGTA | -0.0488 |
| CAGCAAGG | 0.0406 |
| GACATACC | -0.0901 |

| Sequence | binding signal [E-score] |
| --- | --- |
| CATTTGGG | -0.0114 |
| AGAAATAA | -0.0682 |
| CTTTAGTC | -0.284 |
| AGCTGGCC | -0.211 |
| ATGTGGCA | -0.0573 |
| GCGTGGAC | -0.0167 |
| GAACCCTA | 0.0421 |
| CAAGCTCG | -0.179 |
| AATCTTTG | -0.184 |
| TGCGCACA | 0.134 |
| CGGACGAC | 0.152 |
| CTGCTCAC | 0.0583 |
| CAAACCCC | 0.197 |
| ACTATCGG | -0.067 |
| ACTCCCAC | 0.0902 |
| TCACCTGA | 0.0235 |
| CACAAGTA | 0.0438 |
| TACGCGTA | 0.128 |
| CGTTGCCC | -0.246 |
| GAAGGCGC | -0.0589 |
| GCTGACTA | -0.205 |
| CTCTTAAG | -0.197 |
| ATAAGCTA | -0.159 |
| ATTCGACG | -0.0493 |
| CTAATTGA | -0.0408 |

| Sequence | binding signal [E-score] |
| --- | --- |
| CAGAACAG | 0.0111 |
| ACATTCGG | 0.311 |
| CCTGTCAG | -0.0895 |
| CGTACAGC | -0.177 |
| CTCGTCGA | -0.24 |
| CGCATTGC | 0.166 |
| CGTACTCA | -0.0921 |
| ACGCGGAG | 0.0276 |
| AGAGCCTG | -0.144 |
| AGTTGCGG | 0.0493 |
| ACATGGGA | -0.149 |
| GCGGCATA | -0.064 |
| AAGATGCA | 0.0269 |
| CAACCGTG | 0.187 |
| ACTGTTCG | 0.0168 |
| CCCTGCCA | 0.0244 |
| GGGGATCA | 0.275 |
| CCTTAACG | -0.138 |
| CTTTTGGC | -0.155 |
| CCGACCAA | 0.005 |
| CAAAAGAA | -0.185 |
| GATTGATA | -0.0198 |
| AGAAGCCA | -0.173 |
| AACGAGAC | -0.161 |
| GTTCGAAA | -0.00426 |

| Sequence | binding signal [E-score] |
| --- | --- |
| GCAACTGA | 0.0207 |
| CGGAAAAG | -0.0876 |
| ATAGTTAC | 0.0502 |
| TAGGATCA | 0.0358 |
| CCCCAGGC | 0.0175 |
| CTTAAGAC | -0.123 |
| CTTAGTTC | -0.2 |
| AACAATTG | -0.192 |
| GAGATGGC | -0.0935 |
| GCCCCGCA | -0.103 |
| CTCCCGGA | 0.0547 |
| GCAGTGGA | -0.0627 |
| CTTGCCGC | -0.257 |
| TAGAAGGA | -0.181 |
| TGAAGCAA | -0.125 |
| TTATAAAA | -0.237 |
| TGTTAGAA | 0.124 |
| CGGCAACG | -0.0411 |
| CGTATTTC | -0.191 |
| AGGGGGGC | -0.108 |
| ATTGTATG | -0.344 |
| ATACCAGC | 0.0752 |
| ACCTGTCG | 0.118 |
| ACAAAGGC | -0.185 |
| CGCCGAAA | -0.00719 |

| Sequence | binding signal [E-score] |
| --- | --- |
| CAGGGCCA | -0.223 |
| ACCAAGCG | 0.119 |
| CAGCATAA | -0.139 |
| AACCTAGC | -0.16 |
| ACAGCCCT | -0.175 |
| ATGCGGAG | -0.0279 |
| GTAGGGCA | 0.0592 |
| ATGATTGA | 0.0256 |
| CGCTTGAC | 0.00122 |
| ATTAGGCC | -0.154 |
| AGAGGTGA | -0.0211 |
| CGTGCACC | 0.182 |
| CTATCATA | -0.142 |
| CGGGAGCA | -0.203 |
| CAGAGCCG | -0.267 |
| CATGAGCC | -0.0813 |
| ATCGACCC | 0.163 |
| TCGGCAGA | 0.0205 |
| AATCCTTG | 0.00882 |
| TCAATGGA | -0.046 |
| CCGGTTAG | -0.0489 |
| CTTTAAAA | -0.21 |
